Measurements reported in the GPR68 mutational scans of Howard et al. (2025).

B1: GPR68, Q15743 (parent)
chain: MGNITADNSSMSCTIDHTIHQTLAPVVYVTVLVVGFPANCLSLYFGYLQIKARNELGVYLCNLTVADLFYICSLPFWLQYVLQHDNWSHGDLSCQVCGILLYENIYISVGFLCCISVDRYLAVAHPFRFHQFRTLKAAVGVSVVIWAKELLTSIYFLMHEEVIEDENQHRVCFEHYPIQAWQRAINYYRFLVGFLFPICLLLASYQGILRAVRRSHGTQKSRKDQIQRLVLSTVVIFLACFLPYHVLLLVRSVWEASCDFAKGVFNAYHFSLLLTSFNCVADPVLYCFVSETTHRDLARLRGACLAFLTCSRTGRAREAYPLGAPEASGKSGAQGEEPELLTKLHPAFQTPNSPGSGGFPTGRLA

Tests used:
[1] = variants of: B1; assay: cAMP reporter score (Enrich2 score, wild type = 0); higher = more signal; HEK293T, FACS bins
[2] = variants of: B1; assay: surface expression score (Enrich2 score, wild type = 0); higher = more signal; HEK293T, FACS bins

| Variant | cAMP reporter score ([1]; pH 5.5) | cAMP reporter score ([1]; pH 6) | cAMP reporter score ([1]; pH 6, modulator: ogerin) | cAMP reporter score ([1]; pH 6.5, modulator: ogerin) | surface expression score [2] |
| --- | --- | --- | --- | --- | --- |
| E255M | -1.32 | -0.001 | -0.47 | -0.872 | -1.19 |
| E255P | -0.996 | -1.03 | -1.49 | -1.72 | 0.207 |
| E255Q | -1.49 | -0.853 | -1.14 | -1.1 | -0.929 |
| E255R | -1.22 | -1.14 | -1.49 | -1.51 | -1.45 |
| E255S | -0.679 | -0.223 | -0.973 | -1.04 | -0.131 |
| E255T | -0.424 | 0.52 | -1.04 | -0.444 | 1.35 |
| E255V | -1.38 | -1.03 | -1.93 | -0.774 | -1.13 |
| E255W | -0.834 | -0.505 | -1.15 | -0.643 | 0.104 |
| E255Y | -1.34 | -0.839 | -0.986 | -1.08 | -0.54 |
| E255_A256insGS | -0.684 | -0.556 | -1.11 | -0.911 | 0.771 |
| E255_A256insGSG | 0.179 | -0.619 | 0.098 | -0.809 | 1.84 |
| E255del | -1.1 | -0.446 | -1.85 | -0.38 | 0.81 |
| A256_S257del | -0.69 | -0.52 | -1.3 | -0.395 | -1.29 |
| A256_S257insG | 0.682 | -0.509 | 0.126 | -0.744 | 2.09 |
| S257A | 0.156 | -1.53 | -1.01 | -0.659 | -1.8 |
| S257C | -0.219 | -0.306 | -0.331 | -0.649 | -0.897 |

| Variant | cAMP reporter score ([1]; pH 5.5) | cAMP reporter score ([1]; pH 6) | cAMP reporter score ([1]; pH 6, modulator: ogerin) | cAMP reporter score ([1]; pH 6.5, modulator: ogerin) | surface expression score [2] |
| --- | --- | --- | --- | --- | --- |
| S257D | 0.492 | 2.35 | 0.92 | 3 | 1.95 |
| S257E | 0.154 | 0.368 | 1.26 | 1.61 | 1.65 |
| S257F | -1.16 | -0.773 | -1.39 | -1.41 | -1.51 |
| S257G | 0.122 | – | 0.482 | 1.11 | -0.446 |
| S257H | 1.57 | 0.51 | 2.08 | 0.456 | 1.47 |
| S257I | -0.882 | -1.34 | – | -0.12 | -2.37 |
| S257K | 0.675 | – | 0.789 | 0.149 | -0.492 |
| S257L | -0.939 | -0.583 | – | -0.454 | -1.73 |
| S257M | -0.793 | -1.33 | – | -0.631 | -2.92 |
| S257N | 0.6 | 1.43 | 0.562 | 1.39 | 0.837 |
| S257P | -1.07 | -1.52 | -1.78 | -1 | 1.09 |
| S257Q | -0.385 | -0.041 | 0.525 | – | -0.371 |
| S257R | 0.497 | – | 0.373 | -0.187 | 0.12 |
| S257T | 0.88 | – | 0.513 | 0.512 | -0.194 |
| S257V | -1.56 | -1.47 | -2.21 | -0.692 | -2.46 |

Scores whose standard error is large were omitted. Two further conditions of the source, in which the scores hardly spread, are not listed. In variant names, del marks residues removed and ins residues inserted between the two positions. For part of these data: The concentration of ogerin is not given here.
